# Reference: PubChem BioAssay AID588579 (National Center for Advancing Translational Sciences (NCATS), 2011)
# Where “and” joins values, the source holds several entries; their conditions need not be identical. Equal values may be shown once. In all, about 400,000 compounds went through this assay and about 2,200 (0.55%) were called active. This list was built around the results that the source calls inconclusive (neither active nor inactive); the mix of calls is not that of the screen. Calls come from the whole dose curve; as a rule, active = well fitted inhibition curve with a large enough effect; inconclusive = small, poorly fitted or top-dose-only effect, or another doubt; inactive = no such curve, though single readings can be large or run the other way. A potency beside an inconclusive call is a rough fit, not a confirmed value. A structure can be active in one record and inactive in another.
# Molecular target: DNA polymerase kappa (Homo sapiens) (UniProt Q9UBT6)
# Chain of UniProt Q9UBT6 (Q9UBT6 whole entry, looked up): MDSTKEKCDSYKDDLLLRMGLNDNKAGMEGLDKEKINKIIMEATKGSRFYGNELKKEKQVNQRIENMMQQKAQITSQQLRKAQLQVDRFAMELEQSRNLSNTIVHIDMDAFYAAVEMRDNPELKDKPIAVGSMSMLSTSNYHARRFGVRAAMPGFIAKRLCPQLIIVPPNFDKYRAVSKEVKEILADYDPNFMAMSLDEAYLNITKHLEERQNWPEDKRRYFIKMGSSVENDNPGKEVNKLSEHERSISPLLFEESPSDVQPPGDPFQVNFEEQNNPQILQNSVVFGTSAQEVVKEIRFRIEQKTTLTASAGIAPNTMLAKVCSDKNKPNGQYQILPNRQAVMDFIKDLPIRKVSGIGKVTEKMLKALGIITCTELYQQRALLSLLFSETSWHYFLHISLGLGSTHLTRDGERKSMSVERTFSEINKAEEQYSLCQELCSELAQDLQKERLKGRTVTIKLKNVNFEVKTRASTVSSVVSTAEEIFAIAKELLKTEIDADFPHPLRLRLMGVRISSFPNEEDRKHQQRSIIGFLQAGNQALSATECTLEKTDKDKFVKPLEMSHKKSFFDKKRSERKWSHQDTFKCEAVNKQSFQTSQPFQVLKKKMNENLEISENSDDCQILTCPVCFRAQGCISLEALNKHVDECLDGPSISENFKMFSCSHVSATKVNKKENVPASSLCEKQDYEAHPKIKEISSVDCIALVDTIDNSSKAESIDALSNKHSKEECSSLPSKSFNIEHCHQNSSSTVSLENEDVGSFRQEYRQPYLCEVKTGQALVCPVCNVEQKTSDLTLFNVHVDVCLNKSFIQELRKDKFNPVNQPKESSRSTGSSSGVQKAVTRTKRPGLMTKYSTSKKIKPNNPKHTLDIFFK
# Assay: qHTS for Inhibitors of Polymerase Kappa
# Conditions: purified Pol kappa, fluorescent DNA synthesis assay, 10 min; series mostly up to 107 µM; activity, negative = inhibition: at the top concentration
# Summary of the method: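 Kinetic fluorescence screen: compound preincubated 15 min RT with 10 nM enzyme; 50 nM substrate (final) initiates; reads at 0/10 min.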
# % is set by controls: 0 for no effect and ±100 for the full control effect; potency is the fitted concentration of half-maximal effect; tags give direction and shape of the fitted curve.
Structure (SMILES),Potency,"activity, negative = inhibition"
CC(=O)Oc1cc(C(=O)OCC(=O)N2CCc3ccccc3C2)cc(OC(C)=O)c1OC(C)=O,active: 39.8 µM,–
CC(C)c1ccc(S(=O)(=O)/N=C2\C=C(NS(=O)(=O)c3ccccc3)C(=O)c3ccccc32)cc1,–,inactive: -20.2%
O=C(O)c1c(-n2cccc2)sc2c1CCCC2,–,inactive: -11.8%
COC1=C/C(=C/c2c(N)n3nc(CC(=O)N4CCOCC4)sc3nc2=O)C=CC1=O,active: 79.4 µM,–
O=C(COC(=O)CNC(=O)c1ccc(-c2ccccc2)cc1)NCc1ccco1,–,inactive: -9.67%
O=c1nc2s/c(=C\c3ccco3)c(=O)n2nc1Cc1ccc(F)cc1,active: 20 µM,–
C/C=C1\C(OC2OC(CO)C(O)C(O)C2O)OC=C(C(=O)OC)C1CC(=O)OCC1C(C)C(OC(=O)CC2C(C(=O)OC)=COC(OC3OC(CO)C(O)C(O)C3O)/C2=C\C)CC1C(CO)CO (stereo not given),active: 79.4 µM,–
CCCC(CCC)C(=O)Nc1c[nH]c(=O)[nH]c1=O,"inconclusive: 89.1 µM [inhibitor, single point]",–
C=CCSC1=N/C(=C\c2ccc(C)o2)C(=O)S1,"inconclusive: 89.1 µM [inhibitor, single point]",–
CCOC(=O)c1c(NC(=O)c2cc(-c3ccccc3OC)on2)sc(C)c1C,–,inactive: -23.5%
Nc1c(O)cccc1C(=O)O,"inconclusive: 56.2 µM [inhibitor, partial curve, poor fit]",–
CCCN(CCC)C1=N/C(=C\c2ccco2)C(=O)N1c1ccccc1,"inconclusive: 89.1 µM [inhibitor, single point]",–
COc1cccc(/C=C2/NC(=O)N(CC(=O)Nc3ccc(C)cc3)C2=O)c1OCc1cccc(C(=O)O)c1,active: 79.4 µM,–
O=C(Cc1n[nH]c(=O)[nH]c1=O)N/N=C/c1cccc(Cl)c1,"inconclusive: 100 µM [inhibitor, single point]",–
COc1cccc(Cc2nc3ccccc3nc2SCC(=O)Nc2cccc(C)c2)c1,–,inactive: -0.533% [at 60.1 µM]
CC(C)CCCC(C)C1CC(=O)C2=C3CCC4CC(O)CCC4(C)C3CCC21C (stereo not given),–,inactive: 0.783% [at 19.4 µM]
O=C(O)C1Cc2ccccc2CN1C(=O)c1ccco1 (stereo not given),"inconclusive: 89.1 µM [inhibitor, single point]",–
COC(=O)c1ccc([C@@H]2Nc3c(OC)ccc(C)c3[C@@H]3C=CC[C@@H]32)cc1,–,inactive: -9.45%
CS(=O)(=O)N1CCN(c2ccc([N+](=O)[O-])c(NCc3ccc(Cl)cc3)c2)CC1,"inconclusive: 39.8 µM [inhibitor, partial curve, poor fit]",–
COc1ccc(Br)cc1/C=N/Nc1ccc(S(=O)(=O)Nc2ccccc2C(=O)O)cc1[N+](=O)[O-],active: 39.8 µM,–
COc1ccc(C(=O)Nc2cccc(/C=C(/CCC(=O)O)c3nc4ccccc4s3)c2)cc1,"inconclusive: 89.1 µM [inhibitor, single point]",–
COC(=O)c1ccc2c(c1)C(C)(C)C(/C=C/c1ccc(OC)c(OC)c1OC)=[N+]2C,"inconclusive: 50.1 µM [inhibitor, partial curve, poor fit]",–

Structure (SMILES),Potency,"activity, negative = inhibition"
CCOC(=O)c1cccc(NC(=O)NCCc2c(C)nn(C)c2C)c1,–,inactive: -7.45% [at 60.1 µM]
O=c1c(-c2ccc(Cl)cc2)nc2cnc(Nc3ccccc3)nc2n1C1CC1,"inconclusive: 35.5 µM [inhibitor, single point]",–
O=C(CSc1ccc(Br)c2cccc(Cl)c12)Nc1ccc(S(=O)(=O)Nc2nccs2)cc1,"inconclusive: 89.1 µM [inhibitor, single point]",–
COC(=O)C[C@H]1c2cc(C(F)(F)F)ccc2S(=O)(=O)N1C1CCCC1,"inconclusive: 89.1 µM [inhibitor, partial curve, poor fit]",–
CCn1c(=N)c(C(=O)NCc2cccnc2)cc2c(=O)n3cc(C)ccc3nc21,"inconclusive: 100 µM [inhibitor, single point]",–
CC[C@H](C)/C=C(C)/C=C/C1=CC2=CC(=O)[C@]3(C)OC(=O)[C@@H](C(C)=O)[C@@H]3C2=CO1,active: 79.4 µM,–
O=C(OCc1cc(=O)n2ccsc2n1)C1(c2ccc(Cl)cc2)CC1,"inconclusive: 89.1 µM [inhibitor, partial curve, poor fit]",–
C/C=C(\C)C(=O)NCCN1C2=NC[C@H](C)N2C[C@@H]1Cc1ccc(OC)cc1,–,inactive: -16.9%
CS(=O)(=O)c1nc2c(cc1C#N)CCCC2,"inconclusive: 89.1 µM [inhibitor, single point]",–
CCN(CC)c1ccc2c(-c3ccc(S(=O)(=O)O)cc3S(=O)(=O)[O-])c3ccc(=[N+](CC)CC)cc-3oc2c1,"inconclusive: 20 µM [inhibitor, full curve, poor fit]",–
CC1(C)S[C@@H]2[C@H](NC(=O)[C@H](N)c3ccccc3)C(=O)N2[C@H]1C(=O)O,active: 50.1 µM and active: 22.4 µM,–
Cc1ccc(S(=O)(=O)N2[C@@H](c3ccc(C(C)(C)C)cc3)C(C(=O)O)=CC[C@H]2c2ccc(Cl)cc2)cc1,"inconclusive: 79.4 µM [inhibitor, partial curve, poor fit]",–
CCCC[C@H](NC(=O)[C@H](CC(C)C)NC(=O)CNC(=O)[C@@H](NC(=O)[C@H](Cc1ccccc1)NC(=O)[C@H](CO)NC(=O)[C@@H](N)CC(=O)O)C(C)C)C(N)=O,–,inactive: 13.6% [at 60.1 µM]
COc1ccc(N(CC(=O)N2CCc3ccccc3C2)S(=O)(=O)c2c(C)nn(C)c2C)cc1,"inconclusive: 89.1 µM [inhibitor, partial curve, poor fit]",–
COc1cccc(NC(=O)CN(C)C(=O)C2CC(=O)N(CCc3ccc(OC)c(OC)c3)C2)c1 (stereo not given),"inconclusive: 89.1 µM [inhibitor, single point]",–
O=C(COC(=O)c1ccc([N+](=O)[O-])o1)Nc1ccc(F)cc1,"inconclusive: 89.1 µM [inhibitor, partial curve, poor fit]",–
Nc1cccc2[nH]c(C(F)(F)F)nc12,"inconclusive: 79.4 µM [inhibitor, partial curve]",–
COC(=O)N/N=C(C)/C=C/c1ccccc1,"inconclusive: 89.1 µM [inhibitor, partial curve, poor fit]",–
Cc1ccc(C(CCN(Cc2ccccc2)C(=O)c2ccco2)c2ccco2)cc1 (stereo not given),active: 50.1 µM,–
COc1cccc(C2CC(=O)Nc3c2c(=O)n(C)c2nc4ccccc4n32)c1OC (stereo not given),–,inactive: -6.69%
CC(C)OC(=O)CC(=O)c1sc2nc3c(cc2c1N)CN(C)CC3,"inconclusive: 50.1 µM [inhibitor, partial curve]",–
O=C1N=c2ccccc2=C1c1sc(Nc2cccc(O)c2)nc1O,–,inactive: -5.15%

Structure (SMILES),Potency,"activity, negative = inhibition"
O=C(NCCc1c[nH]c2ccccc12)C(=O)NCC1OCCN1S(=O)(=O)c1cc(F)ccc1F (stereo not given),–,inactive: 3.91%
COc1ccc(NC(=O)CSc2nc3ccccc3c(=O)n2CCCO)cn1,"inconclusive: 100 µM [inhibitor, single point]",–
Cc1ccc2cc(C)c3nnc(SCC(=O)NCc4ccco4)n3c2c1,"inconclusive: 89.1 µM [inhibitor, single point]",–
Cc1ccc(CN2CCSc3ccc(C(=O)N4CCOCC4)cc32)cc1,"inconclusive: 100 µM [inhibitor, partial curve, poor fit]",–
CSC1SCC2C(=O)N(C)C(C(C)C)C(=O)OCC(NC(=O)c3cnc4ccccc4n3)C(=O)NC(C)C(=O)N(C)C1C(=O)N(C)C(C(C)C)C(=O)OCC(NC(=O)c1cnc3ccccc3n1)C(=O)NC(C)C(=O)N2C (stereo not given),–,inactive: -100%
O=C(CSc1ccsc1[N+](=O)[O-])N1CCN(c2ccc(Cl)cc2)CC1,"inconclusive: 89.1 µM [inhibitor, single point]",–
O=C(N/N=C/c1cccnc1)c1cc(O)c(O)c(O)c1,"inconclusive: 35.5 µM [inhibitor, full curve, poor fit]",–
Cc1ccsc1C(=O)NCCc1ccco1,"inconclusive: 89.1 µM [inhibitor, single point]",–
CCN(CC)CCCNc1nc2cc(OC)c(OC)cc2c2nc(-c3ccccc3)nn12,"inconclusive: 50.1 µM [inhibitor, partial curve]",–
CC(C)Cn1cc(NC(=O)NCc2cccc(Cl)c2)c2ccccc2c1=O,–,inactive: -19.1%
O=C(NCCC1=CCCCC1)c1ccc2c(c1)sc1nc(-c3ccc(F)cc3)cn12,–,inactive: -9%
CCOc1ccccc1C1NC(=O)NC(C)=C1C(=O)OCc1ccco1 (stereo not given),–,inactive: -12.9%
O=[n+]1c2c(n([O-])c3cc(Br)ccc31)CCC2,"inconclusive: 79.4 µM [inhibitor, partial curve]",–
O=c1c(-c2ccccc2)coc2cc(O)cc(O)c12,active: 1.78 µM,–
COc1ccc(-n2nc3c(N4CCC(C(=O)NCc5ccccc5C)CC4)nnc(C)c3c2C)cc1,inactive,–
COc1ccc(OC)c(CCNC(=O)CCCn2c(=O)c3cccn3c3ccc(F)cc32)c1,–,inactive: 7.17%
O=C(O)CC(C(=O)O)c1ccc(OCCCCOc2ccc(C(CC(=O)O)C(=O)O)cc2)cc1 (stereo not given),active: 79.4 µM,–
CCN(C(=O)COC(=O)/C(C#N)=C/c1ccc(N(C)C)cc1)C1CCS(=O)(=O)C1 (stereo not given),"inconclusive: 39.8 µM [inhibitor, single point]",–
Cc1cc(C(=O)C(C)Cl)c(C)n1Cc1ccco1 (stereo not given),"inconclusive: 89.1 µM [inhibitor, single point]",–
COc1cc(/C=N/NC(=O)c2ccc(COc3cc(C)ccc3C(C)C)cc2)cc(OC)c1O,"inconclusive: 50.1 µM [inhibitor, partial curve]",–
CC(C)C[C@H](NC(=O)[C@H](Cc1ccccc1)C[C@@H](O)[C@H](Cc1ccccc1)NC(=O)OC(C)(C)C)C(=O)N[C@@H](Cc1ccccc1)C(N)=O,–,inactive: -4.18% [at 60.1 µM]
